Reference: the supplement of paper PMC11417369
± gives the standard deviation of the averaged measurements. Some of the results follow.

These sequences were tested on PfAP2-LT AP2 domain (GST-tagged) (assay: gcPBM binding intensity (ln(normalized median fluorescence intensity)); higher = stronger DNA binding).
Outline: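 GST-fused DNA-binding domains of P. falciparum, expressed in E. coli, were applied at about 25 μg on average for 1 h to an Agilent 4 × 180k array of primer-extended double-stranded 36-bp intergenic genomic probes and negative controls. Binding intensity is the highest Masliner-normalised natural-log median intensity across replicate spots of either probe orientation, measured with Alexa488 anti-GST antibody and a 488 nm scan.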

| Sequence | gcPBM binding intensity (ln) |
| --- | --- |
| AAATATTATGTACGCACACACATTTTTGATATATAA [CACACA_site7755] | 9.31 ± 0.33 |
| CGCAACGTGAAAATACGTACACATACATTTTTATAT [XGTACX_site330] | 8.88 ± 0.39 |
| TAATCGTTTTATAAATGTACAAAATTGTTATGTTAT [XGTACX_site5147] | 8.69 ± 0.38 |
| TTAATACATACATTCACACACACTAAATGTATATTT [CACACA_site4105] | 9.23 ± 0.28 |
| GGGGGAAGGTTGAAGGTGCTTGATGGAGAAAAATAT | 9.11 ± 0.13 |
| AAAATAGAGTTGAATGCACACATACAAATTTTTAGG [CACACA_site9188] | 9.07 ± 0.52 |
| ATAAATAATTTATTCACACATACAAAAGTTTACAAA [CACACA_site5666] | 8.59 ± 0.45 |
| TTATTAAATTCTTTATTTAGCATATACAATAAAAGA [CACACA_negctrl_site1420] | 8.13 ± 0.48 |
| CTAAAAAGAGAAGTGTGTCCTCAAATTAATATAATT [XGTACX_site1057] | 8.66 ± 0.65 |
| TTTTTTTTTTTTGAAGTGCATGTTACGATGAACAAA [GTGCAC_site9451] | 8.21 ± 0.39 |
| TCTTATATAACGAAAGTAAAATAATATGCTAAGCAT [CACACA_negctrl_site668] | 8.45 ± 0.4 |
| TATATAAAAATATACACACACAAATGTATTTATATA [CACACA_site4284] | 9.07 ± 0.43 |
| AATGAATATTAAAGGAGTACACATAATAAGTAAGAA [XGTACX_site7354] | 9.1 ± 0.4 |
| GAAAAAAAAAAAAATACACACAAATTGGTATAGAAT [CACACA_site380] | 9.21 ± 0.57 |
| GATTATTTCTAAAAAGTGCATATTTAAAAATCTCCT | 8.29 ± 0.43 |
| TATTATATTATACATACACACCCATATAATATGTTT [CACACA_site8191] | 9.04 ± 0.43 |
| ATTGTTTTGTAATATGAAAAAATTGTGTAATGTGTC [CACACA_negctrl_site1510] | 8.72 ± 0.4 |
| ATTTATATGAAAATATGTACTTATATAAATTTATTT [XGTACX_site53] | 8.54 ± 0.42 |
| AAAAAATAGAATATGGGTACTAAAAAGATACAAACA [XGTACX_site4464] | 8.85 ± 0.57 |
| AAATTCGTAATAATGTGTACATAACTATACATAATT [XGTACX_site1717] | 8.9 ± 0.42 |

| Sequence | gcPBM binding intensity (ln) |
| --- | --- |
| CACATAAAATAAGGTGCATGCAAACGAGAAAATAAA [TGCATGCA_site75] | 9.56 ± 0.45 |
| AAGATTAAACATTGCACACAAAAACATATTTTCTAT [CACACA_site530] | 9.07 ± 0.4 |
| AATAAATATATTAAAAGTACACAAATATTATTTAAT [XGTACX_site2482] | 8.72 ± 0.42 |
| AAAAAAAATATATTACAAAACTTAGGATCCTAATAT [CACACA_negctrl_site470] | 8.56 ± 0.51 |
| ATATATATATAATAATGTACTTATAATAGATGTGTA [XGTACX_site4677] | 8.76 ± 0.31 |
| TAATAAAAAGTTGAGGTGCATATAGAGTTCTTCTTT [GTGCAC_site9508] | 8.71 ± 0.46 |
| ATTATAATATTTAATTGTACTTGTATTTATTCCAAA [XGTACX_site6417] | 8.59 ± 0.45 |
| ATATTTTATATAATAGTGCAAATAATATTAAATAAT | 8.61 ± 0.47 |
| TGCCCTTTGGTTATAACACACATGCACCCGTAAATA [CACACA_site3842] | 9.04 ± 0.38 |
| CAAAGGAAACCTATCTGTACACATATTGGGGGAAAA [XGTACX_site3502] | 9.075 ± 0.064 |
| AGAAGATTAAACATTGCACACAAAAACATATTTTCT [CACACA_site8072] | 8.96 ± 0.45 |
| AATATATAAGCTGTTCTATTCAAGAATTATATCTTA [CACACA_negctrl_site270] | 8.53 ± 0.29 |
| CGTAAACGATATAAATGTACGAATATCTATATATTA [XGTACX_site8116] | 8.69 ± 0.51 |
| TATATATTGCCCTTCACACACACACCGATATATATA [CACACA_site5390] | 9.69 ± 0.29 |
| GAACGATATATTATATGTACATATATATATATATAT [XGTACX_site394] | 9.73 ± 0.33 |
| TCGTTTCATAATATTGTGCACATATATATTTACAAT | 9.05 ± 0.4 |
| TATTTCATCTTTTAAGAAGGTACCCATATGTCATAT [GTGCAC_negctrl_site403] | 8.78 ± 0.45 |
| AAAAATATAACCGTTACACACAAAATAATATGAGAA [CACACA_site3773] | 9.14 ± 0.46 |
| ATATATATATATATTTGTACTTACATTTTTATTTAT [XGTACX_site4551] | 9.41 ± 0.16 |
| ATAATAAGGTTAAGCACACATATTACATATATAACT [CACACA_site3356] | 9.08 ± 0.51 |

| Sequence | gcPBM binding intensity (ln) |
| --- | --- |
| CCAGTGTGCACCTTGCGTACATATTAAATTAATTAA [XGTACX_site3729] | 8.73 ± 0.57 |
| AAAAAAGAAATAAGGATACACACTATTGATAAAAGT [CACACA_site272] | 9.15 ± 0.4 |
| TTTTTTAAATTTAAAGTGCATTATTATATATTTGTA | 8.53 ± 0.38 |
| CAAAAAAAAAAACGGGTGCTAAATTTTATTTTTTAT | 8.48 ± 0.49 |
| AAAAAAAAAATATATATATATATATATATATATATA [GTGCAC_negctrl_site467] | 10.1 ± 0.2 |
| ATAAAGCACACCGACACACACATATATATATATATA [CACACA_site1047] | 10.54 ± 0.099 |
| TATCATGGTTCGGATTGTACATATATGAATTTTTTT [XGTACX_site7478] | 8.8 ± 0.37 |
| TTCTTTTAAAAATATATTTTAAGAAAATTTAATTTA [GTGCAC_negctrl_site237] | 7.79 ± 0.47 |
| GGATAAGAAAAGAAGTGTACATATATATATATATAT [XGTACX_site8290] | 9.865 ± 0.035 |
| TTTATTTTTTGAAACACACACAAAAAAAATGATACA [CACACA_site1881] | 8.8 ± 0.35 |
| AAAAAAAAAAAAAAGAGTACTTTTTTCACATTCATC [XGTACX_site8795] | 8.6 ± 0.39 |
| AATATATGTTAAAATGGTACACAATTATTATATATT [XGTACX_site6407] | 8.75 ± 0.44 |
| TAAAATGAATAAAATTGTACTTAATAATATTTTAAA [XGTACX_site5532] | 8.23 ± 0.57 |
| AAAAAAAAAAAAATTACACACATACCTATAAGAATA [CACACA_site7097] | 8.9 ± 0.38 |
| TTTTCTTTTTTCTTTTTAACTCTTACATAATAGGTG [CACACA_negctrl_site642] | 8.46 ± 0.5 |
| TAATATATAAATATATGTACATAATTAATAGGATAT [XGTACX_site237] | 8.85 ± 0.4 |
| GGATATATAAGATACACACACAAATTAAATATAAAA [CACACA_site7333] | 9.48 ± 0.54 |
| TATTCCTAATTTAAAAGTACATATATATATATATAT [XGTACX_site3008] | 9.29 ± 0.42 |
